The list shows a part of the results.
What was measured:
Assay in all cases: glycan array binding signal (z-score within array); higher = stronger binding
Details in all cases: glycan notation: IUPAC condensed, linker removed
[1] = target: Gal(a1-6)Glc
Summary of the method: (§1)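 Glycan array binding is given as a within-array Z-score, which can be read as non-binding when negative. The arrays, 3228 of them, came from the Consortium for Functional Glycomics database and were retained only where the protein sequence was available. Z-scores were averaged across arrays of the same protein sequence at different concentrations or buffers and across linkers.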

[2] = target: Gal(b1-3)GalNAc
Summary of the method: as §1

[3] = target: Gal(b1-3)GalNAc(b1-4)Gal(b1-4)Glc
Summary of the method: as §1

[4] = target: Gal(b1-3)GalNAc(b1-4)Gal3S(b1-4)Glc
Summary of the method: as §1

[5] = target: Gal(b1-3)GalNAc(b1-4)[Neu5Ac(a2-3)]Gal(b1-4)Glc
Summary of the method: as §1

[6] = target: Gal(b1-3)GalNAc(b1-4)[Neu5Gc(a2-3)]Gal(b1-4)Glc
Summary of the method: as §1

[7] = target: Gal(b1-3)GlcNAc
Summary of the method: as §1

[8] = target: Gal(b1-3)GlcNAc(b1-3)Gal(b1-4)Glc
Summary of the method: as §1

[9] = target: Gal(b1-3)GlcNAc(b1-3)Gal(b1-4)GlcNAc(b1-3)Gal(b1-4)Glc
Summary of the method: as §1

[10] = target: Gal(b1-3)GlcNAc(b1-3)Gal(b1-4)GlcNAc(b1-6)[Gal(b1-3)GlcNAc(b1-3)]Gal(b1-4)Glc
Summary of the method: as §1

[11] = target: Gal(b1-3)GlcNAc(b1-3)Gal(b1-4)[Fuc(a1-3)]GlcNAc(b1-3)Gal(b1-4)Glc
Summary of the method: as §1

[12] = target: Gal(b1-3)GlcNAc(b1-3)Gal(b1-4)[Fuc(a1-3)]GlcNAc(b1-6)[Gal(b1-3)GlcNAc(b1-3)]Gal(b1-4)Glc
Summary of the method: as §1

[13] = target: Gal(b1-3)GlcNAc(b1-3)[Fuc(a1-3)[Gal(b1-4)]GlcNAc(b1-6)]Gal(b1-4)Glc
Summary of the method: as §1

[14] = target: Gal(b1-3)GlcNAc(b1-3)[Fuc(a1-3)[Gal(b1-4)]GlcNAc(b1-6)]Gal(b1-4)]GlcNAc(b1-6)[Gal(b1-4)]GlcNAc(b1-3)]Gal(b1-4)Glc
Summary of the method: as §1

[15] = target: Gal(b1-3)GlcNAc(b1-3)[Gal(b1-4)GlcNAc(b1-6)]Gal(b1-4)Glc
Summary of the method: as §1

[16] = target: Gal(b1-3)GlcNAc(b1-3)[Gal(b1-4)GlcNAc(b1-6)]Gal(b1-4)GlcNAc(b1-6)[Gal(b1-3)GlcNAc(b1-3)]Gal(b1-4)Glc
Summary of the method: as §1

[17] = target: Gal(b1-3)[Fuc(a1-4)]GlcNAc
Summary of the method: as §1

[18] = target: Gal(b1-3)[Fuc(a1-4)]GlcNAc(b1-3)Gal(b1-4)Glc
Summary of the method: as §1

[19] = target: Gal(b1-3)[Fuc(a1-4)]GlcNAc(b1-3)Gal(b1-4)[Fuc(a1-3)]Glc
Summary of the method: as §1

[20] = target: Gal(b1-3)[Fuc(a1-4)]GlcNAc(b1-3)Gal(b1-4)[Fuc(a1-3)]GlcNAc(b1-3)Gal(b1-4)Glc
Summary of the method: as §1

[21] = target: Gal(b1-3)[Fuc(a1-4)]GlcNAc(b1-3)Gal(b1-4)[Fuc(a1-3)]GlcNAc(b1-6)[Gal(b1-3)[Fuc(a1-4)]GlcNAc(b1-3)]Gal(b1-4)Glc
Summary of the method: as §1

[22] = target: Gal(b1-3)[Fuc(a1-4)]GlcNAc(b1-3)[Fuc(a1-3)[Gal(b1-4)]GlcNAc(b1-6)]Gal(b1-4)Glc
Summary of the method: as §1

[23] = target: Gal(b1-3)[Neu5Ac(a2-6)]GalNAc(b1-4)Gal(b1-4)Glc
Summary of the method: as §1

[24] = target: Gal(b1-3)[Neu5Ac(a2-6)]GlcNAc(b1-3)Gal(b1-4)Glc
Summary of the method: as §1

[25] = target: Gal(b1-4)Glc
Summary of the method: as §1

[26] = target: Gal(b1-4)GlcNAc
Summary of the method: as §1

[27] = target: Gal(b1-4)GlcNAc(b1-2)Man(a1-3)[Gal(b1-4)GlcNAc(b1-2)Man(a1-6)]Man(b1-4)GlcNAc(b1-4)GlcNAc
Summary of the method: as §1

[28] = target: Gal(b1-4)GlcNAc(b1-2)Man(a1-3)[Gal(b1-4)GlcNAc(b1-2)Man(a1-6)]Man(b1-4)GlcNAc(b1-4)[Fuc(a1-6)]GlcNAc
Summary of the method: as §1

[29] = target: Gal(b1-4)GlcNAc(b1-2)Man(a1-3)[Gal(b1-4)GlcNAc(b1-2)Man(a1-6)][GlcNAc(b1-4)]Man(b1-4)GlcNAc(b1-4)[Fuc(a1-6)]GlcNAc
Summary of the method: as §1

[30] = target: Gal(b1-4)GlcNAc(b1-2)Man(a1-3)[Man(a1-6)]Man(b1-4)GlcNAc(b1-4)GlcNAc
Summary of the method: as §1

[31] = target: Gal(b1-4)GlcNAc(b1-2)Man(a1-6)[GlcNAc(b1-2)Man(a1-3)]Man(b1-4)GlcNAc(b1-4)[Fuc(a1-6)]GlcNAc
Summary of the method: as §1

[32] = target: Gal(b1-4)GlcNAc(b1-2)Man(a1-6)[Man(a1-3)]Man(b1-4)GlcNAc(b1-4)GlcNAc
Summary of the method: as §1

[33] = target: Gal(b1-4)GlcNAc(b1-2)Man(a1-6)[Man(a1-3)]Man(b1-4)GlcNAc(b1-4)[Fuc(a1-6)]GlcNAc
Summary of the method: as §1

[34] = target: Gal(b1-4)GlcNAc(b1-2)[Gal(b1-4)GlcNAc(b1-4)]Man(a1-3)[Fuc(a1-3)[Gal(b1-4)]GlcNAc(b1-2)Man(a1-6)]Man(b1-4)GlcNAc(b1-4)GlcNAc
Summary of the method: as §1

[35] = target: Gal(b1-4)GlcNAc(b1-2)[Gal(b1-4)GlcNAc(b1-4)]Man(a1-3)[Gal(b1-4)GlcNAc(b1-2)Man(a1-6)]Man(b1-4)GlcNAc(b1-4)GlcNAc
Summary of the method: as §1

[36] = target: Gal(b1-4)GlcNAc(b1-2)[Gal(b1-4)GlcNAc(b1-4)]Man(a1-3)[Gal(b1-4)GlcNAc(b1-2)[Gal(b1-4)GlcNAc(b1-6)]Man(a1-6)]Man(b1-4)GlcNAc(b1-4)GlcNAc
Summary of the method: as §1

[37] = target: Gal(b1-4)GlcNAc(b1-3)Fuc
Summary of the method: as §1

[38] = target: Gal(b1-4)GlcNAc(b1-3)Gal(b1-4)Glc
Summary of the method: as §1

B1: MIC1 (Toxoplasma gondii), O00834 (protein)
chain: VGPEAYGEASHSHSPASGRYIQQMLDQRCQEIAAELCQSGLRKMCVPSSRIVARNAVGITHQNTLQWRCFDTASLLESNQENNGVNCVDDCGHTIPCPGGVHRQNSNHATRHEILSKLVEEGVQRFCSPYQASANKYCNDKFPGTIARRSKGFGNNVEVAWRCYEKASLLYSVYAECASNCGTTWYCPGGRRGTSTELDKRHYTEEEGIRQAIGSVDSPCSEVEVCLPKDENPPLCLDESGQISRT
glycan array binding signal (z-score) [1]: -0.287 | glycan array binding signal (z-score) [2]: -0.3 | glycan array binding signal (z-score) [3]: -0.293 | glycan array binding signal (z-score) [4]: -0.271 | glycan array binding signal (z-score) [5]: -0.391 | glycan array binding signal (z-score) [6]: -0.079 | glycan array binding signal (z-score) [7]: -0.461 | glycan array binding signal (z-score) [8]: -0.425 | glycan array binding signal (z-score) [9]: -0.279 | glycan array binding signal (z-score) [10]: -0.278 | glycan array binding signal (z-score) [11]: -0.312 | glycan array binding signal (z-score) [12]: -0.312 | glycan array binding signal (z-score) [13]: -0.312 | glycan array binding signal (z-score) [14]: -0.312 | glycan array binding signal (z-score) [15]: -0.364 | glycan array binding signal (z-score) [16]: -0.296 | glycan array binding signal (z-score) [17]: -0.287 | glycan array binding signal (z-score) [18]: -0.417 | glycan array binding signal (z-score) [19]: -0.296 | glycan array binding signal (z-score) [20]: -0.298 | glycan array binding signal (z-score) [21]: -0.266 | glycan array binding signal (z-score) [22]: -0.308 | glycan array binding signal (z-score) [23]: -0.278 | glycan array binding signal (z-score) [24]: -0.412 | glycan array binding signal (z-score) [25]: -0.36 | glycan array binding signal (z-score) [26]: -0.458 | glycan array binding signal (z-score) [27]: -0.443 | glycan array binding signal (z-score) [28]: -0.3 | glycan array binding signal (z-score) [29]: -0.312 | glycan array binding signal (z-score) [30]: -0.312 | glycan array binding signal (z-score) [31]: -0.287 | glycan array binding signal (z-score) [32]: -0.287 | glycan array binding signal (z-score) [33]: -0.312 | glycan array binding signal (z-score) [34]: -0.312 | glycan array binding signal (z-score) [35]: -0.279 | glycan array binding signal (z-score) [36]: -0.309 | glycan array binding signal (z-score) [37]: -0.287 | glycan array binding signal (z-score) [38]: -0.426

From the supplement of paper PMC8728848
